Some of the results follow.

This test has as its system PfHDP1 homeodomain (GST-tagged). Briefly: gcPBM binding intensity (ln(normalized median fluorescence intensity)); higher = stronger DNA binding. The gist of the method:
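Binding intensity is the highest Masliner-normalised natural-log median intensity over replicate spots in either probe orientation. To obtain it, GST-tagged P. falciparum DNA-binding domains made in E. coli were incubated for 1 h on an Agilent 4 × 180k array of primer-extended double-stranded 36-bp intergenic genomic probes plus negative controls. Detection used Alexa488 anti-GST antibody with scanning at 488 nm.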
Turning to “ATATGTTTTTTTTTTTTTTTTTAATTTGTCATAAAT [CACACA_negctrl_site1208]”, the “gcPBM binding intensity (ln)” value came out at 6.15.

As to “TAAAGATGAAATATCACACATATATAAATATATAAA [CACACA_site4580]”, the “gcPBM binding intensity (ln)” value worked out at 6.13.

For the sequence “TAAAAATTAAAACTGGGTACAAATTTATAGATAGCC [XGTACX_site8075]”, the “gcPBM binding intensity (ln)” value worked out at 6.57. “AATTTATTAGATAGATGTACATTTTAATAAAAGTAG [XGTACX_site6819]”: the “gcPBM binding intensity (ln)” value was 6.38. The same measure for “CATTAACAAATAAATGCACACATATATATAAATAAT [CACACA_site7892]”: 9.2. With “TCCCCTTAATTTAAAACACACAAACAAATAAGTTAG [CACACA_site5973]” the figure was 6.48; with “ATAAATTTTTTATGAACACACAAATACACCCACTCA [CACACA_site5465]”, 7.07. With “ATAACTTTCTATACATGTACACATATATGGTATTTT [XGTACX_site7535]” the figure was 6.94. In the case of “TGTATATATTTTAATAGTACTCATATATATATATAT [XGTACX_site7216]”, the “gcPBM binding intensity (ln)” value is 9.17. Take “CTTATAAAAAAAATTGCACACATATTATACAGGACG [CACACA_site8133]”: the “gcPBM binding intensity (ln)” value was found to be 10. The same measure for “TTTACATTTATGTGCACACATTCCATTTGAAAGTAA [CACACA_site1953]”: 10.9; for “AATATTTTTTTTTAAACATGCATATTTGCATTACCC [TGCATGCA_site437]”: 8.67. With “TTTTTTTTAATGAGAAGTACGGTCTTTCAATGTCTT [XGTACX_site6773]”, the “gcPBM binding intensity (ln)” value turned out to be 5.95.

In the case of “ATTGTGTTGACGGGTGACCCTTCCAGAGAAATAGAA [CACACA_negctrl_site1362]”, the “gcPBM binding intensity (ln)” value amounted to 6.07. Regarding “GTGTACAGTTTTTGCACACATATAAATAAAAAAAAG [CACACA_site3599]”, the “gcPBM binding intensity (ln)” value is 10.2. The same measure for “AAAATATTTATATTTACACACACATAATACATATAT [CACACA_site32]”: 6.84.

In the case of “ATATATACAAAGGATTAACACACATATTATTATATA [CACACA_site8563]”, the “gcPBM binding intensity (ln)” value was found to be 6.3.

Consider “TTCGTTATAATTGAATTTACAATATGCTTTATAATG [XGTACX_negctrl_site238]”, for which the “gcPBM binding intensity (ln)” value stood at 6.24. The same measure for “TAAATTACATGAAATTGTACATGAATATTAAATATA [XGTACX_site3909]”: 6.5; for “GCATATATTATATATTTATTTATTTTTTTTTTTTAA [GTGCAC_negctrl_site193]”: 6.25.

With “CAATGTTAACATATTACACACATATGTATTTATAAT [CACACA_site5512]”, the “gcPBM binding intensity (ln)” value is 7. For the sequence “ATATATATGAATACATGTACGTATTTGTCTATGTAT [XGTACX_site8306]”, the “gcPBM binding intensity (ln)” value amounted to 6.55. With “AATAAAGGAAATAAATAATTTATTTTGTAAAATATG [CACACA_negctrl_site97]”, the “gcPBM binding intensity (ln)” value came out at 6.42.

As for “TCATATGTTAAATGATGTACATTTAATATAAATAAA [XGTACX_site900]”, the “gcPBM binding intensity (ln)” value turned out to be 6.2. Take “AAAAAAAACATCCTCACACATATATATATATATATA [CACACA_site5166]”: the “gcPBM binding intensity (ln)” value worked out at 9.41. Consider “TAATATCATTTATGGGGTACCTCCTATTCTTATTTA [XGTACX_site1839]”, for which the “gcPBM binding intensity (ln)” value came out at 6.18. For the sequence “CGAACTGCACTTTTTAGTACTTAATAATTATTTTTT [XGTACX_site2446]”, the “gcPBM binding intensity (ln)” value was 7.46. With “ATGTTACTCAGACACACACACATAAAAAAACAAAAA [CACACA_site3249]” the figure was 6.95; with “TGTGTTAATATATGAAGTACACAATACACACTAATT [XGTACX_site5469]”, 6.78; with “AAATAAAATTATAATACATGCATACATACATATATA [TGCATGCA_site69]”, 6.3.

Take “TATAAATACATACGTACACACAAATATTAAAATATA [CACACA_site5129]”: the “gcPBM binding intensity (ln)” value was 6.39.

Regarding “TATCATAAAAAATATACACACAAAGGATATTTATAT [CACACA_site6841]”, the “gcPBM binding intensity (ln)” value was 6.51. The same measure for “TATGAACACCAACACACACACAAAAAAAAAAAAAAA [CACACA_site2013]”: 6.43; for “GAATACATAATAACATGTACACACATTCTTCTATAA [XGTACX_site8725]”: 6.47; for “TATATATATAGAAATGCATGTTAATAAAAGTTATAA [TGCATGCA_site947]”: 7.31. “TTGTTTTCTTATTATTACTACAATACTTAAGTCAGA [TGCATGCA_negctrl_site184]”: the “gcPBM binding intensity (ln)” value came out at 6.53. Consider “TATTTATTTATGGACACACATACAAATCTTCCAGAC [CACACA_site942]”, for which the “gcPBM binding intensity (ln)” value is 6.62. With “TAATCATAACTTGATACGCACACGTTATATAAATAA [CACACA_site1579]” the figure was 6.62; with “TTTTTTTTTTTTTAAACATGCATAATAAATATAATA [TGCATGCA_site265]”, 6.49; with “TTTTTTATTTTGTGCACACACATAAAAATATATATA [CACACA_site761]”, 11.4. The same measure for “TTTTGTTGGATACAAAAATTACAAATTATTTAAAAA [TGCATGCA_negctrl_site532]”: 5.77. With “TATATATTTAATTTCACACATATATATAATTATTAT [CACACA_site4936]” the figure was 6.37.

On to “TTTTTTATTTTAAAAACATGCATAAAATATAATAGT [TGCATGCA_site762]”, for which the “gcPBM binding intensity (ln)” value came to 6.76. The same measure for “AGATAAAAAAAGTACACACACACATATATTTATATA [CACACA_site7437]”: 6.84.

The values above are taken from the supplement of paper PMC11417369.
